# Source: PubChem BioAssay AID2675 (National Center for Advancing Translational Sciences (NCATS), 2010)
# Out of some 280,000 compounds screened, about 100 (0.036%) were called active. Inconclusive means that the source gave no clear call. Such entries were picked first, then a sample of the others. Calls come from the whole dose curve; as a rule, active = well fitted inhibition curve with a large enough effect in the signal ratio, with a control signal flat (not every such curve was filed as active); inconclusive = small, poorly fitted or top-dose-only effect, or effect the other way, or a change in a side signal; inactive = no such curve, though single readings can be large or run the other way; the % refers to the signal ratio. Potencies of inconclusive entries are doubtful fits and often do not repeat. A note “side channel” means that the fit belongs to a control or component signal, not to the main read-out.
# Target: Muscleblind-like protein 1 (Homo sapiens) (UniProt Q9NR56)
# Assay: qHTS Assay for Inhibitors of MBNL1-poly(CUG) RNA binding
# Conditions: TR-FRET MBNL1-His/biotin-(CUG)12 binding, 665/545 ratio; activity change, negative = inhibition: at 57.5 µM (top of the series)
# Summary of the method: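 Ratiometric TR-FRET (665 over 545 nm, excitation 340 nm) tracks disruption of MBNL1-His/biotin-(CUG)12 complex after 60 min at room temperature, with compounds at 92 nM to 58 uM final.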
# % is set by controls: 0 for no effect and ±100 for the full control effect; potency is the fitted concentration of half-maximal effect; tags give direction and shape of the fitted curve or compound fluorescence and quenching.
# Sequence of UniProt Q9NR56 (Q9NR56 whole entry, looked up): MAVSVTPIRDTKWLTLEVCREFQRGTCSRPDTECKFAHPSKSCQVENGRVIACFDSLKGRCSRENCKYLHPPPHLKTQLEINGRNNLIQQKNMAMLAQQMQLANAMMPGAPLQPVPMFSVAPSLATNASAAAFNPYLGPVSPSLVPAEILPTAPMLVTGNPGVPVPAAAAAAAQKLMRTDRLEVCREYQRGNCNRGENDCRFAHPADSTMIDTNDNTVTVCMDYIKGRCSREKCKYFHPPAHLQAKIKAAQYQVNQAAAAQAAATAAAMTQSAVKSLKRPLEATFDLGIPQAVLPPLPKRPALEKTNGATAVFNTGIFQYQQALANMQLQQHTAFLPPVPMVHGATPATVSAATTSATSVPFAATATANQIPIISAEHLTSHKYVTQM
SMILES,Potency,"activity change, negative = inhibition"
COC(=O)CC1C(=O)NCCN1C(=O)CSc1nc2ccc([N+](=O)[O-])cc2s1 (configuration not stated),"inconclusive: 28.2 µM [quencher, side channel, partial curve]",
COc1ccccc1NC(=O)CCN1CCN(Cc2ccccc2)CC1,,inactive: 4.34%
Cc1ccccc1NC(=O)/C(C#N)=C/c1ccc(-c2ccc(Cl)c(C(=O)O)c2)o1,"inconclusive: 11.2 µM [quencher, side channel, partial curve, poor fit]",
COc1cccc(C(=O)C2CCCN(Cc3ccc(OC)c(Cn4cncn4)c3)C2)c1 (configuration not stated),,inactive: -10.2%
O=C(NCc1cccs1)c1cc(S(=O)(=O)N2CCCCC2)ccc1Cl,"inconclusive: 0.355 µM [fluorescent, side channel, full curve, poor fit]",
CCn1c(N)c(C(=O)NCc2ccc3c(c2)OCO3)sc1=S,"inconclusive: 20 µM [quencher, side channel, partial curve]",
COc1cc(C2C(C(=O)c3ccco3)=C(O)C(=O)N2c2cc(C)on2)cc(Br)c1O (configuration not stated),"inconclusive: 35.5 µM [quencher, side channel, single point]",
CCCSc1nc(N)c(C#N)c(-c2ccc(C)cc2)c1C#N,"inconclusive: 39.8 µM [fluorescent, side channel, single point]",
COc1ccc(-c2noc(CSc3nnc(Cc4ccccc4)n3-c3ccc(Cl)cc3)n2)cc1,,inactive: -10.9%
Cn1c(C(=O)NCCN2CCc3ccccc3C2)cc2c(=O)[nH]c3ccccc3c21,"inconclusive: 31.6 µM [quencher, side channel, single point]",
CC1=CN2C(=N)/C(=C/c3ccc(Sc4ccc(C)cc4)o3)C(=O)N=C2S1,"inconclusive: 39.8 µM [quencher, side channel, single point]",
CC(=O)NCCc1nc2ccccc2[nH]1,,inactive: -11.2%
CC12CCC(C/C1=N/OC(=O)c1cccc([N+](=O)[O-])c1)C2(C)C (configuration not stated),"inconclusive: 22.4 µM [quencher, side channel, partial curve]",
O=C(O)COn1c(-c2ccc(Cl)cc2)nc2ccc(Cl)cc21,,inactive: -3.07%
CC1Cc2ccccc2N1C(=O)CCNS(=O)(=O)c1cccc2nsnc12 (configuration not stated),"inconclusive: 12.6 µM [quencher, side channel, partial curve]",
O=c1oc2ccccc2c(NCc2cccc(F)c2)c1[N+](=O)[O-],"inconclusive: 15.8 µM [quencher, side channel, partial curve]",
CN(C)C(=O)CSc1nc2ccc(N3C(=O)c4ccccc4C3=O)cc2s1,"inconclusive: 7.08 µM [quencher, side channel, partial curve]",
NC(=O)c1cc([N+](=O)[O-])ccc1NCCN1C(=O)c2ccc(C(=O)O)cc2C1=O,"inconclusive: 10 µM [quencher, side channel, partial curve]",
CSCCC(=O)N1CCN(CC(=O)N2CCCC2)CC1,"inconclusive: 0.708 µM [quencher, full curve]",

SMILES,Potency,"activity change, negative = inhibition"
CC(NS(=O)(=O)OCC(Cl)(Cl)Cl)c1ccc(Br)cc1 (configuration not stated),,inactive: -8.43%
O=C(N/N=C/c1cccc([N+](=O)[O-])c1)C1CC1c1ccccc1 (configuration not stated),"inconclusive: 14.1 µM [activator, partial curve]",
COC(=O)CSc1nnc(COc2ccc([N+](=O)[O-])cc2)n1C,"inconclusive: 35.5 µM [quencher, side channel, single point]",
COc1cccc(CNCCc2c[nH]c3ccccc23)c1OCc1ccccc1,"inconclusive: 0.0891 µM [fluorescent, side channel, full curve]",
COc1ccc(-c2cc3ncnc(Cl)c3s2)cc1,"inconclusive: 3.55 µM [quencher, side channel, full curve, poor fit]",
N#CC(c1ccc(Cl)cc1)c1ccc(Cl)nn1 (configuration not stated),"inconclusive: 31.6 µM [quencher, side channel, partial curve]",
CSc1nnc(C)c(=O)n1COC(=O)c1ccc(S(=O)(=O)N2CCCC2)cc1,"inconclusive: 158 µM [inhibitor, partial curve, poor fit]",
CC(=O)COc1cccc2ccc(/C=C/c3ccc(Br)s3)nc12,"inconclusive: 15.8 µM [quencher, side channel, partial curve]",
NC(=O)c1ccc(N2CCCCCC2)c([N+](=O)[O-])c1,"inconclusive: 25.1 µM [quencher, side channel, partial curve]",
COc1ccc(-n2nc(C(=O)NCC(=O)N3CCCCCC3)c3ccccc3c2=O)cc1,"inconclusive: 15.8 µM [quencher, side channel, partial curve]",
CCN1C(=O)c2cccc3c(S(=O)(=O)Nc4ccncc4)ccc1c23,"inconclusive: 31.6 µM [quencher, side channel, single point]",
CCOC(=O)c1cc2c(=O)n3ccccc3nc2n(CC(C)C)c1=NC(=O)c1ccco1,"inconclusive: 10 µM [quencher, side channel, partial curve]",
CSc1ncccc1C(=O)N1CCCC(C(=O)c2ccc3ccccc3c2)C1 (configuration not stated),"inconclusive: 14.1 µM [quencher, side channel, single point]",
O=C(CCn1nc(-c2ccccc2)ccc1=O)N1CCN(c2ccccc2)CC1,"inconclusive: 39.8 µM [quencher, side channel, single point]",
O=C(COc1cccnc1[N+](=O)[O-])NCc1ccc2c(c1)OCO2,"inconclusive: 15.8 µM [quencher, side channel, partial curve]",
CCN(CC)S(=O)(=O)c1ccc(N=Nc2c(N)[nH]c(=O)[nH]c2=O)cc1,"inconclusive: 2 µM [quencher, side channel, full curve]",
O=C(NCCCO)c1cc([N+](=O)[O-])cc2c1C=Cc1ccccc1O2,"inconclusive: 3.16 µM [quencher, side channel, full curve]",
COC(=O)C1(Cc2ccc(O)cc2)OC(=O)C(O)=C1c1ccc(O)cc1 (configuration not stated),"inconclusive: 22.4 µM [quencher, single point]",
